According to PubChem BioAssay (Tox21):
Where “and” joins values, the source holds several entries; their conditions need not be identical. Equal entries are not always repeated. Inconclusive means that the source gave no clear call. Such entries were picked first, then a sample of the others. Potencies beside an inconclusive call are fits to weak or partial responses and may not hold up. Calls of active or inactive are those of the source. Calls come from the whole dose curve; as a rule, active = well fitted activation curve with a large enough effect in the repeat runs; inconclusive = weak or mixed curves; inactive = flat fitted curve, though single readings scatter.

Assay: A CellTox Green Cytotoxicity Assay to monitor cytotoxicity in HepG2 cells - 32 hour (AID 1224883); note: nearly all actives have a fitted effect of over 50% in size
Conditions: CellTox Green fluorescence; series mostly up to 76.8 µM; cytotoxicity increase: at the top concentration
Excerpt: National Center for Advancing Translational Sciences [NCATS]
NIH Chemical Genomics Center [NCGC]
U.S. Environmental Protection Agency [EPA]
National Institutes of Environmental Health Sciences [NIEHS]
National Toxicology Program [NTP]
Cell-based models are critical for drug discovery. Determining the natural cytotoxic effects resulting from test compounds is an essential research activity. A CellTox Green Cytotoxicity Assay to monitor cytotoxicity in real time of continues cell culture during 40 hours of the compound treatment was used to screen Tox21 10K library compounds in HepG2 cells. CellTox Green Cytotoxicity Assay is a nonlytic, homogeneous, biofluorescent method to measure cytotoxicity in cell culture after experimental manipulation. The assay system uses a proprietary asymmetric cyanine dye that is excluded from viable cells but preferentially stains the dead cell's DNA. […] Viable cells produce no appreciable increases in fluorescence. Therefore, the fluorescence signal produced by the binding interaction with dead cell DNA is proportional to cytotoxicity.
The mixture of HepG2 cell suspension and reagents were dispensed at 600cells/6 ul/well in 1536-well tissue culture treated black solid bottom plates using a Multidrop dispenser. After the assay plates were incubated at a 37 C/5% CO2 incubator for 5 hours, 23 nL of compounds dissolved in DMSO, positive and negative controls was transferred to the assay plate by a pintool work station. The plates were incubated at 37 C for 40 hours. The fluorescence intensity were measured at 0h, 8h, 16h, 24h, 32h and 40h time points using ViewLux plate reader during compound treatment.
% is set by controls: 0 for no effect and ±100 for the full control effect; potency is the fitted concentration of half-maximal effect; tags give direction and shape of the fitted curve.

SMILES	Potency	cytotoxicity increase
CCCCN1C(=O)c2ccccc2C1=O	inconclusive: 56.9 µM [activator, single point]	–
O=C(c1ccc(O)c(O)c1)c1ccc(O)cc1O	inconclusive: 54.9 µM [activator, partial curve, poor fit]	–
COc1ccc(C(=O)/C(Br)=C\C(=O)O)cc1	active: 13.8 µM	–
C[C@H]1[C@H]2CC[C@H]3[C@@H]4CC=C5C[C@@H](N(C)C)CC[C@]5(C)[C@H]4CC[C@]23CN1C	–	inactive: -0.289% [at 35.3 µM]
CCCCCCc1ccc(N)cc1	active: 49 µM	–
Nc1nnc(-c2ccc([N+](=O)[O-])o2)o1	inconclusive: 61.6 µM [activator, single point]	–
C=CCON/C(CCC)=C1\C(=O)CC(C)(C)C(C(=O)OC)=C1O	inconclusive: 54.3 µM [activator, single point]	–
N[C@@H](CSSC[C@H](N)C(=O)O)C(=O)O	inconclusive: 0.12 µM [activator, single point]	–
Fc1ccc(C(c2ccc(F)cc2)N2CCNCC2)cc1	inconclusive: 26.8 µM [activator, single point]	–
COC(=O)c1nc(Cl)c(Cl)nc1N	inconclusive: 10.7 µM [activator, single point]	–
CCOC(=O)N1CCC(n2c(=O)[nH]c3cc(Cl)ccc32)CC1	–	inactive: -1.74% [at 35.3 µM]
Oc1ccc(Cc2ccccc2)cc1	inconclusive: 50.9 µM [activator, partial curve, poor fit]	–
CCCCC(CC)COP(=O)(O)OCC(CC)CCCC (stereo not given)	inconclusive: 49.1 µM [activator, single point] and inconclusive: 54.9 µM [activator, single point]	–
CC(C)(O)c1ccccc1CC[C@@H](SCC1(CC(=O)O)CC1)c1cccc(/C=C/c2ccc3ccc(Cl)cc3n2)c1	–	inactive: -0.947% [at 35.3 µM]
NS(=O)(=O)c1cc2c(cc1Cl)NC(CC1CCCC1)NS2(=O)=O (stereo not given)	inconclusive: 26.8 µM [activator, single point]	–
Cc1cccc(Oc2ccccc2)c1	inconclusive: 42.6 µM [activator, partial curve]	–
O=C1OC2(c3ccccc31)c1cc(I)c(O)c(I)c1Oc1c2cc(I)c(O)c1I	active: 13.3 µM [middle of 4 runs]	–
CCCCCCCCCCCCCCCCOP(=O)([O-])OCC[N+](C)(C)C	inconclusive: 26.8 µM [activator, single point]	–
C[C@]12CC[C@H]3[C@@H](CCC4=CC(=O)CC[C@@]43C)[C@@H]1CC[C@@H]2C(=O)CO	inconclusive: 54.9 µM [activator, single point]	–
CC(=O)CC(C)C	–	inactive: 2.68%

SMILES	Potency	cytotoxicity increase
CC(=O)O[C@@H]1C(=O)O[C@@H]2[C@H]1OC(=O)[C@@H]2OC(C)=O	inconclusive: 26.8 µM [activator, single point]	–
COC(=O)[C@H]1[C@H]2C[C@@H]3c4[nH]c5cc(OC)ccc5c4CCN3C[C@H]2C[C@@H](OC(=O)c2cc(OC)c(OC)c(OC)c2)[C@@H]1OC	inconclusive: 34.6 µM [activator, partial curve] and inconclusive: 31.8 µM [activator, partial curve]	–
COC(=O)C1=C(C)NC(C)=C(C(=O)O[C@@H]2CCCN(Cc3ccccc3)C2)[C@@H]1c1cccc([N+](=O)[O-])c1	–	inactive: 8.36% [at 35.3 µM]
C[Si]1(C)O[Si](C)(C)O[Si](C)(C)O1	–	inactive: -12.4%
COc1ccccc1O	inconclusive: 22 µM [activator, single point]	–
CC(=O)O[C@@H]1CC2CCC1(C)C2(C)C (stereo not given in full)	–	inactive: 1.83%
BrCc1cccc(Oc2ccccc2)c1	inconclusive: 49 µM [activator, partial curve]	–
CCCC(C)c1ccccc1O (stereo not given)	inconclusive: 34.7 µM [activator, partial curve, poor fit]	–
COC(=O)c1ccc(C(=O)OC)c(C(=O)OC)c1	inconclusive: 21.9 µM [activator, single point]	–
CCCCOC(=O)[C@H](C)O	–	inactive: 2.32%
CC(COc1ccccc1)N(CCCl)Cc1ccccc1 (stereo not given)	active: 55.5 µM and inconclusive: 54.9 µM [activator, single point] and inconclusive: 26.8 µM [activator, single point]	–
Clc1nc(Cl)c(Cl)c(Cl)c1Cl	inconclusive: 49.2 µM [activator, partial curve, poor fit]	–
CCCCCCC(CO)CCCC (stereo not given)	inconclusive: 34.7 µM [activator, partial curve, poor fit]	–
O=CCCCC=O	inconclusive: 53 µM [activator, single point] and inconclusive: 21.9 µM [activator, single point]	–
CC(C)CCCC(C)CCO (stereo not given)	inconclusive: 43.6 µM [activator, partial curve]	–
O=C(c1ccccc1)c1ccccc1O	inconclusive: 54.9 µM [activator, single point]	–
O=C1c2ccccc2-c2ccccc21	–	inactive: 2.56%
COc1cc(C(C)=O)ccc1OCCCN1CCC(c2noc3cc(F)ccc23)CC1	inconclusive: 26.8 µM [activator, single point]	–
COCC(=O)O[C@]1(CCN(C)CCCc2nc3ccccc3[nH]2)CCc2cc(F)ccc2[C@@H]1C(C)C	active: 10.7 µM	–
O=C(CCCN1CCC(O)(c2cccc(C(F)(F)F)c2)CC1)c1ccc(F)cc1	inconclusive: 26.8 µM [activator, single point]	–
